The antibiotic and cytotoxicity screens of Wong et al. (2023)
Some of the results follow.

System: S. aureus RN4220
Experiment: growth inhibition call (relative growth <= 0.2)
Conditions: 50 µM

Growth inhibition call, inactive:
COc1ccc(C#Cc2ccc3c(c2)[C@]2(C(=O)N3)[C@H](C(=O)O)[C@H]3C(=O)O[C@H](c4ccccc4)[C@H](c4ccccc4)N3[C@@H]2c2ccc(O)cc2)cc1
C[C@H]1CN([C@@H](C)CO)C(=O)c2cc(NC(=O)CCN3CCOCC3)ccc2O[C@H]1CN(C)Cc1ccc2c(c1)OCO2
Cc1noc(C)c1NC(=O)N(C)C[C@@H]1OCCCC[C@@H](C)Oc2ccc(NC(=O)Nc3ccccc3)cc2C(=O)N([C@H](C)CO)C[C@H]1C
CN(C)c1nc(N(C)C)nc(N(C)C)n1
COCOc1ccc2cc(Br)ccc2c1-c1c(OCOC)ccc2cc(Br)ccc12
COc1ccc(S(=O)(=O)N(C)C[C@H]2OCCCC[C@H](C)Oc3ccc(NC(=O)Nc4ccc(F)cc4)cc3C(=O)N([C@H](C)CO)C[C@@H]2C)cc1
Cn1cnc(S(=O)(=O)N[C@H]2C=C[C@@H](CC(=O)N3CCN(c4ccccc4)CC3)O[C@@H]2CO)c1
C[C@@H]1CN([C@@H](C)CO)C(=O)c2cc(NC(=O)c3ccncc3)ccc2O[C@@H](C)CCCCO[C@H]1CN(C)C(=O)Nc1ccc(F)cc1
CC(C)(C)OC(=O)CC[C@@]12N=C(c3ccc(OCCCO)cc3)O[C@@H]1c1ccccc1CN(C(=O)c1ccccc1)C2=O
C[C@@H]1CN([C@@H](C)CO)S(=O)(=O)c2ccc(C#Cc3ccccc3)cc2O[C@H]1CN(C)S(=O)(=O)c1cn(C)cn1
C[C@@H]1CN([C@H](C)CO)C(=O)CCCn2cc(nn2)CO[C@H]1CN(C)S(=O)(=O)c1ccc(Oc2ccccc2)cc1
C[C@@H]1CN([C@H](C)CO)S(=O)(=O)c2ccc(C#CCN(C)C)cc2O[C@@H]1CN(C)S(=O)(=O)c1cccc(F)c1
C[C@@H]1CN([C@H](C)CO)C(=O)c2cccc(NS(=O)(=O)c3cn(C)cn3)c2O[C@@H]1CN(C)C(=O)Nc1ccccc1
COCC#Cc1ccc2c(c1)O[C@H](CN(C)S(=O)(=O)c1ccc(C)cc1)[C@H](C)CN([C@H](C)CO)S2(=O)=O
COc1cccc(NC(=O)N(C)C[C@@H]2Oc3ncc(C#Cc4ccncc4)cc3C(=O)N([C@@H](C)CO)C[C@H]2C)c1
Cc1cnc(C(=O)NCCc2ccc(S(=O)(=O)NC(=O)NC3CCCCC3)cc2)cn1
COC(=O)[C@H]1CCCC[C@@H]1CN
COC(=O)C1=C2CC[C@H](CO)NC(=O)N[C@H](Cc3ccccc3)C(=O)NCc3cn(nn3)C[C@H](Cc3ccccc3)NC(=O)c3oc(c(C(=O)OC)c3C(=O)OC)CC[C@H](CO)NC(=O)N[C@H](Cc3ccccc3)C(=O)NCc3cn(nn3)C[C@H](Cc3ccccc3)NC(=O)C(=C1C(=O)OC)O2
C[C@@H]1CCCCO[C@H](CN(C)Cc2ccc(C(F)(F)F)cc2)[C@@H](C)CN([C@H](C)CO)C(=O)c2cc(NC(=O)C3CCCCC3)ccc2O1
O=C(C[C@H]1C=C[C@@H](NS(=O)(=O)c2ccccc2F)[C@@H](CO)O1)NCCCN1CCOCC1
C[C@@H]1CN([C@@H](C)CO)C(=O)c2cc(NC(=O)Nc3ccc(C(F)(F)F)cc3)ccc2O[C@@H](C)CCCCO[C@@H]1CN(C)CC1CCCCC1
CN1C(=O)c2cc(NC(=O)Cc3cccs3)ccc2OC[C@H]2O[C@H](CC(=O)NCc3ccc(-c4ccccc4)cc3)CC[C@H]21
NC(=O)NCC#Cc1ccc2c(c1)[C@]1(C(=O)N2)[C@H](C(N)=O)[C@H]2C(=O)O[C@H](c3ccccc3)[C@H](c3ccccc3)N2[C@@H]1c1ccc(OCCO)cc1
COc1ccc(S(=O)(=O)Nc2cccc3c2O[C@@H](CN(C)S(=O)(=O)c2ccccc2)[C@@H](C)CN([C@H](C)CO)C3=O)cc1
CN1C(=O)c2cc(NC(=O)C3CCOCC3)ccc2OC[C@H]2O[C@H](CC(=O)NCc3ccccc3F)CC[C@@H]21
C[C@@H]1CN([C@@H](C)CO)C(=O)c2cc(NC(=O)c3ccccc3)ccc2O[C@@H](C)CCCCO[C@@H]1CN(C)S(=O)(=O)c1ccccc1
C[C@H]1CN([C@@H](C)CO)C(=O)c2cc(C#Cc3ccc(F)cc3)cnc2O[C@@H]1CN(C)Cc1ccccn1
CC=Cc1ccc2n(c1=O)C[C@@H]1[C@@H](CO)[C@H](C(=O)NC3CCC3)[C@H]2N1S(=O)(=O)c1cn(C)cn1
